The results in this text go back to the supplement of paper PMC9588766.

Counter-ions that a name gives are not always drawn. In all, about 1,900 compounds were measured (“cell viability of compound + 1 nM pemigatinib relative to pemigatinib-only (DMSO) wells”: median about 0.95, lowest 2% from about 0.22 on). This is one part of the list.

For the experiment, the system named is PDC-DUC18828. The experiment is described as follows: cell viability of compound + 1 nM pemigatinib relative to pemigatinib-only (DMSO) wells (fraction); PDC-DUC18828 is a patient-derived cholangiocarcinoma cell line; higher = less growth inhibition. Particulars: first compound 1 µM; pemigatinib concentration 1 nM; 72 h. As to the method:
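Selleck Bioactive library screen in the patient-derived FGFR2 fusion-positive ICC cell line PDC-DUC18828 (500 cells/well). Each compound was tested at 1 uM with 1 nM pemigatinib, in triplicate, for 72 h. Viability was read by CellTiter-Glo and normalised to plate DMSO controls. Value is the paper's averaged normalised viability.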
`CN1CCN(CCCNc2ncc(Cl)c(-c3cc4c(C(=O)NC5CC5)cccc4s3)n2)CC1` + CCN1C(=O)N(c2c(F)c(OC)cc(OC)c2F)Cc2cnc3[nH]c(CN4CCOCC4)cc3c21 [pemigatinib]: the cell viability was 0.897.

In the case of `NC(=O)c1noc([C@H](CCCC2CCCCC2)CC(=O)NO)n1` + CCN1C(=O)N(c2c(F)c(OC)cc(OC)c2F)Cc2cnc3[nH]c(CN4CCOCC4)cc3c21 [pemigatinib], the cell viability turned out to be 1.04.

Turning to `NC1(c2ccc(-c3nc4ccn5c(=O)[nH]nc5c4cc3-c3ccccc3)cc2)CCC1` + CCN1C(=O)N(c2c(F)c(OC)cc(OC)c2F)Cc2cnc3[nH]c(CN4CCOCC4)cc3c21 [pemigatinib], the cell viability is 0.776.

`CCOc1cn(-c2ccc(F)cc2C)nc1C(=O)Nc1ccc(Oc2ccnc3cc(OC)c(OC)cc23)c(F)c1` + CCN1C(=O)N(c2c(F)c(OC)cc(OC)c2F)Cc2cnc3[nH]c(CN4CCOCC4)cc3c21 [pemigatinib]: the cell viability stood at 0.84.

For `C#C[C@]1(O)CC[C@H]2[C@@H]3CCC4=CC(=O)CC[C@@H]4[C@H]3CC[C@@]21C` [Norethindrone] + CCN1C(=O)N(c2c(F)c(OC)cc(OC)c2F)Cc2cnc3[nH]c(CN4CCOCC4)cc3c21 [pemigatinib], the cell viability worked out at 1.02.

Turning to `C=CCc1cc(OC)c(O)c(C(=O)NCCO)c1` [Alibendol] + CCN1C(=O)N(c2c(F)c(OC)cc(OC)c2F)Cc2cnc3[nH]c(CN4CCOCC4)cc3c21 [pemigatinib], the cell viability was found to be 1.03.

Take `Nc1ccc(S(=O)(=O)Nc2ncccn2)cc1` [Sulfadiazine] + CCN1C(=O)N(c2c(F)c(OC)cc(OC)c2F)Cc2cnc3[nH]c(CN4CCOCC4)cc3c21 [pemigatinib]: the cell viability was determined as 1.

For `CCCC(C)NC(=O)c1ccc(Cl)c(Cl)c1` (stereo not drawn) + CCN1C(=O)N(c2c(F)c(OC)cc(OC)c2F)Cc2cnc3[nH]c(CN4CCOCC4)cc3c21 [pemigatinib], the cell viability was found to be 1.02.

In the case of `CNC1CCC(N(Cc2cccc(-c3ccncc3)c2)C(=O)c2sc3ccccc3c2Cl)CC1` (stereo not drawn) [Smoothened Agonist (SAG) HCl] + CCN1C(=O)N(c2c(F)c(OC)cc(OC)c2F)Cc2cnc3[nH]c(CN4CCOCC4)cc3c21 [pemigatinib], the cell viability was found to be 0.933.

With `C#C[C@]1(OC(C)=O)CC[C@H]2[C@@H]3CCC4=C[C@@H](OC(C)=O)CC[C@@H]4[C@H]3CC[C@@]21C` [Ethynodiol diacetate] + CCN1C(=O)N(c2c(F)c(OC)cc(OC)c2F)Cc2cnc3[nH]c(CN4CCOCC4)cc3c21 [pemigatinib], the cell viability is 0.911.

For `COC(=O)N1CCN(Cc2cccc(NC(=O)Nc3ccc(C)nc3)c2F)CC1` + CCN1C(=O)N(c2c(F)c(OC)cc(OC)c2F)Cc2cnc3[nH]c(CN4CCOCC4)cc3c21 [pemigatinib], the cell viability was 0.985.

In the case of `O=C(O)CSc1cc(NS(=O)(=O)c2ccc(Br)cc2)c2ccccc2c1O` + CCN1C(=O)N(c2c(F)c(OC)cc(OC)c2F)Cc2cnc3[nH]c(CN4CCOCC4)cc3c21 [pemigatinib], the cell viability was 0.949.

Consider `Nc1ccc(O)c(C(=O)O)c1` [Mesalamine] + CCN1C(=O)N(c2c(F)c(OC)cc(OC)c2F)Cc2cnc3[nH]c(CN4CCOCC4)cc3c21 [pemigatinib], for which the cell viability stood at 0.947.

`COc1cc2c(cc1O)CC[C@@H]1[C@@H]2CC[C@]2(C)[C@@H](O)CC[C@@H]12` [2-Methoxyestradiol (2-MeOE2)] + CCN1C(=O)N(c2c(F)c(OC)cc(OC)c2F)Cc2cnc3[nH]c(CN4CCOCC4)cc3c21 [pemigatinib]: the cell viability turned out to be 0.516.

Turning to `NC(=O)c1cccc2[nH]c(-c3ccc(C4CCCN4)cc3F)nc12` (stereo not drawn) + CCN1C(=O)N(c2c(F)c(OC)cc(OC)c2F)Cc2cnc3[nH]c(CN4CCOCC4)cc3c21 [pemigatinib], the cell viability is 0.961.

With `COC(=O)C1=C(C)NC(C)=C(C(=O)OC)C1c1ccccc1[N+](=O)[O-]` [Nifedipine] + CCN1C(=O)N(c2c(F)c(OC)cc(OC)c2F)Cc2cnc3[nH]c(CN4CCOCC4)cc3c21 [pemigatinib], the cell viability was 0.965.

With `CC(C)NC[C@H](O)COc1ccc(CCOCC2CC2)cc1` [Levobetaxolol HCl] + CCN1C(=O)N(c2c(F)c(OC)cc(OC)c2F)Cc2cnc3[nH]c(CN4CCOCC4)cc3c21 [pemigatinib], the cell viability stood at 0.96.

In the case of `NC(=O)c1ncn([C@@H]2O[C@H](CO)[C@@H](O)[C@H]2O)c1N` [Acadesine] + CCN1C(=O)N(c2c(F)c(OC)cc(OC)c2F)Cc2cnc3[nH]c(CN4CCOCC4)cc3c21 [pemigatinib], the cell viability worked out at 0.951.

With `CC1=C(C(=O)OC2CCCCC2)C(c2ccc([N+](=O)[O-])cc2)C2=C(CC(C)(C)CC2=O)N1` (stereo not drawn) + CCN1C(=O)N(c2c(F)c(OC)cc(OC)c2F)Cc2cnc3[nH]c(CN4CCOCC4)cc3c21 [pemigatinib], the cell viability was found to be 0.974.

`C[C@@H]1C(=O)O[C@H]2C[C@@]34[C@H]5C[C@@H](C(C)(C)C)[C@]36[C@@H](OC(=O)[C@@H]6O)O[C@@]4(C(=O)O5)[C@]21O` [Ginkgolide A] + CCN1C(=O)N(c2c(F)c(OC)cc(OC)c2F)Cc2cnc3[nH]c(CN4CCOCC4)cc3c21 [pemigatinib]: the cell viability was 1.

On to `O=C(O)C(Cc1ccccc1[N+](=O)[O-])=NNc1nc(-c2ccc(Cl)c(Cl)c2)cs1` (mixture of isomers) + CCN1C(=O)N(c2c(F)c(OC)cc(OC)c2F)Cc2cnc3[nH]c(CN4CCOCC4)cc3c21 [pemigatinib], for which the cell viability turned out to be 0.955.

`CC(c1cc2ccccc2s1)N(O)C(N)=O` (stereo not drawn) [Zileuton] + CCN1C(=O)N(c2c(F)c(OC)cc(OC)c2F)Cc2cnc3[nH]c(CN4CCOCC4)cc3c21 [pemigatinib]: the cell viability amounted to 1.01.

`CC(C)(F)C[C@H](N[C@@H](c1ccc(-c2ccc(S(C)(=O)=O)cc2)cc1)C(F)(F)F)C(=O)NC1(C#N)CC1` [Odanacatib (MK-0822)] + CCN1C(=O)N(c2c(F)c(OC)cc(OC)c2F)Cc2cnc3[nH]c(CN4CCOCC4)cc3c21 [pemigatinib]: the cell viability was 1.02.

For the molecule `COc1cc(C)c(/C=C/C(C)=C/C=C/C(C)=C/C(=O)O)c(C)c1C` [Acitretin] + CCN1C(=O)N(c2c(F)c(OC)cc(OC)c2F)Cc2cnc3[nH]c(CN4CCOCC4)cc3c21 [pemigatinib], the cell viability is 0.961.

For the molecule `C[C@@H]1COCCN1c1cc(C2([S@](C)(=N)=O)CC2)nc(-c2cc[nH]c3nccc2-3)n1` + CCN1C(=O)N(c2c(F)c(OC)cc(OC)c2F)Cc2cnc3[nH]c(CN4CCOCC4)cc3c21 [pemigatinib], the cell viability came out at 0.929.

On to `C/C(=N\NC(=S)N1CCC1)c1ccccn1` + CCN1C(=O)N(c2c(F)c(OC)cc(OC)c2F)Cc2cnc3[nH]c(CN4CCOCC4)cc3c21 [pemigatinib], for which the cell viability stood at 0.323.

Turning to `O=c1[nH]c(=O)n([C@H]2C[C@H](O)[C@@H](CO)O2)cc1F` [Floxuridine] + CCN1C(=O)N(c2c(F)c(OC)cc(OC)c2F)Cc2cnc3[nH]c(CN4CCOCC4)cc3c21 [pemigatinib], the cell viability turned out to be 0.982.

`CN(C)CCc1c[nH]c2ccc(C[C@H]3COC(=O)N3)cc12` [Zolmitriptan] + CCN1C(=O)N(c2c(F)c(OC)cc(OC)c2F)Cc2cnc3[nH]c(CN4CCOCC4)cc3c21 [pemigatinib]: the cell viability was found to be 0.992.

On to `O=C1c2cccc(O)c2C(=O)c2c(O)cc(CO)cc21` [Aloe-emodin] + CCN1C(=O)N(c2c(F)c(OC)cc(OC)c2F)Cc2cnc3[nH]c(CN4CCOCC4)cc3c21 [pemigatinib], for which the cell viability was determined as 1.03.

As to `CN(C)CCC=C1c2ccccc2C=Cc2ccccc21` [Cyclobenzaprine HCl] + CCN1C(=O)N(c2c(F)c(OC)cc(OC)c2F)Cc2cnc3[nH]c(CN4CCOCC4)cc3c21 [pemigatinib], the cell viability stood at 0.969.

Turning to `NS(=O)(=O)c1cc2c(cc1Cl)NCNS2(=O)=O` [Hydrochlorothiazide] + CCN1C(=O)N(c2c(F)c(OC)cc(OC)c2F)Cc2cnc3[nH]c(CN4CCOCC4)cc3c21 [pemigatinib], the cell viability worked out at 0.979.

With `O=C1C(=O)N(Cc2ccc(Cl)c(Cl)c2)c2ccccc21` [Apoptosis Activator 2] + CCN1C(=O)N(c2c(F)c(OC)cc(OC)c2F)Cc2cnc3[nH]c(CN4CCOCC4)cc3c21 [pemigatinib], the cell viability worked out at 0.776.

Take `O=C(NC1CCOCC1)c1ccc(-c2cc(-c3c[nH]nc3-c3ccccn3)ccn2)cc1` + CCN1C(=O)N(c2c(F)c(OC)cc(OC)c2F)Cc2cnc3[nH]c(CN4CCOCC4)cc3c21 [pemigatinib]: the cell viability worked out at 0.999.

`C[N+]1(C)CCC(=C(c2ccccc2)c2ccccc2)CC1` [Diphemanil Methylsulfate] + CCN1C(=O)N(c2c(F)c(OC)cc(OC)c2F)Cc2cnc3[nH]c(CN4CCOCC4)cc3c21 [pemigatinib]: the cell viability is 0.97.

As to `COc1cc(/C=C/C(=O)O)ccc1O` [Ferulic Acid] + CCN1C(=O)N(c2c(F)c(OC)cc(OC)c2F)Cc2cnc3[nH]c(CN4CCOCC4)cc3c21 [pemigatinib], the cell viability was 0.958.

As for `CN[C@@H](C)C(=O)N[C@H](C(=O)N1CCC[C@H]1C(=O)Nc1snnc1-c1ccccc1)C1CCCCC1` + CCN1C(=O)N(c2c(F)c(OC)cc(OC)c2F)Cc2cnc3[nH]c(CN4CCOCC4)cc3c21 [pemigatinib], the cell viability was found to be 0.888.

On to `CN1CCN(c2cccc(Nc3nc4c(-c5ccc(S(C)(=O)=O)cc5)cccn4n3)c2)CC1` + CCN1C(=O)N(c2c(F)c(OC)cc(OC)c2F)Cc2cnc3[nH]c(CN4CCOCC4)cc3c21 [pemigatinib], for which the cell viability amounted to 0.856.

With `COc1cc2nc(N3CCN(C(=O)C4CCCO4)CC3)nc(N)c2cc1OC` (stereo not drawn) [Terazosin HCl] + CCN1C(=O)N(c2c(F)c(OC)cc(OC)c2F)Cc2cnc3[nH]c(CN4CCOCC4)cc3c21 [pemigatinib], the cell viability stood at 1.05.
